{"source": "paper PMC12136788", "binders": {"B1": {"name": "ENSG00000107863:be:win_3051|CDS|ENSG00000107863|bound_else_gene|NA|bound_elsewhere_windowed (ssRNA)", "RNA": "GGGAGUUCUACAGUCCGACGAUCAUGCCUGUUUCAGGCUGAAGACAGAGAUGAUAUGCUAGCUUGGAUCAAGACGAUCCAGGAGAGCAGCAACCUAAACGAAGAGGACACUGGAGUCACUAACAGGGAUCUAAUUAGUCGAAGCAACAGAGGAUUGAGCAUCA"}, "B2": {"name": "chr10:117282838:117282939:-|3pUTR|ENSG00000165650|unk|total|mutant (ssRNA)", "RNA": "GGGAGUUCUACAGUCCGACGAUCCCCCUUGUGUUAUUUUUCUUCCUCUUGGUUUUUGAAUCCGUGUUAAACCGAAUACUGUCCCGAUUCUUAAAAUAUUUUCAUUUCCAUCAUGGUUAUAACAAAUUUGCUGCAUGCCCAAACCAACAGAGGAUUGAGCAUCA"}, "B3": {"name": "chr17:46339502:46339774:-|CDS|ENSG00000228696|control|control|control (ssRNA)", "RNA": "GGGAGUUCUACAGUCCGACGAUCUGUAGUCACGUGGAAUUUGGAAUGUGGAAAGGAGGUAGAAGUCAUCCUUUCCUCCCCCAUAGCAGCAGGUGUGCAGGCUCUGGUGGUCAGCUGGACUCCAUACUCCCCCACCAGUCACCACAACAGAGGAUUGAGCAUCA"}, "B4": {"name": "ENSG00000107863:be:win_1|CDS|ENSG00000107863|bound_else_gene|NA|bound_elsewhere_windowed (ssRNA)", "RNA": "GGGAGUUCUACAGUCCGACGAUCAUGAUGGCCACGCGUCGGACUGGUCUGUCUGAGGGAGAUGGUGACAAGCUCAAGGCCUGCGAGGUCUCAAAAAAUAAAGAUGGAAAAGAACAAAGUGAAACUGUAUCACUGUCUGAAGAUCAACAGAGGAUUGAGCAUCA"}, "B5": {"name": "chr20:3864521:3864622:+|CDS|ENSG00000088888|msi1|total|mutant (ssRNA)", "RNA": "GGGAGUUCUACAGUCCGACGAUCGCCCUGAAAGUGCCUGCCAACCCAGCAUCUGUCAGCACAGUGCCCUCCAAGUUGCCAACCCGCUCAAAGCCCCCUGGUGCAGUGCCUUCUAAUGCGCUCACCAAUCCAGCACCAUCCAAACAACAGAGGAUUGAGCAUCA"}, "B6": {"name": "ENSG00000198589:be:win_6251|CDS|ENSG00000198589|bound_else_gene|NA|bound_elsewhere_windowed (ssRNA)", "RNA": "GGGAGUUCUACAGUCCGACGAUCGCACUCUUUCUGUCACCUCCUCCGAACUCUAUUUUGAGGUGGAUGAAGAGGAUCCUAACUUCAAAAAAAUCGACCCCAAGAUCUUGGCAUAUACAGAAGGGCUGCAUGGAAAAUGGCUGUCAACAGAGGAUUGAGCAUCA"}, "B7": {"name": "chr6:53267885:53267986:-|3pUTR|ENSG00000012660|msi1_unk|total|mutant (ssRNA)", "RNA": "GGGAGUUCUACAGUCCGACGAUCUUUAAUGUAAAUCUAACCGUACUUGUAAUUUCUUUCUGCUCCGAAUCUAAAGAUGUGUUCCGAACCUCUUGUUUAAAAAUAACCGACUGCUUAUCAUAAAAUCACAUCUCACACAUUUGACAACAGAGGAUUGAGCAUCA"}, "B8": {"name": "chr11:13729208:13729309:+|3pUTR|ENSG00000197601|unk|FALSE|unique (ssRNA)", "RNA": "GGGAGUUCUACAGUCCGACGAUCAAAGUUGGUAGAUAUUUGAUUCUUCAUUUUUUGUUUUUUUCAUUAGUUGAAGUGGGUUUUAGUUUUGUUUAAAAUUAUAACCAGCGUAUUUUCACAUCAUUCUGUAAGUUAAAUGAUAUCCAACAGAGGAUUGAGCAUCA"}, "B9": {"name": "chr2:135724104:135724205:+|CDS|ENSG00000048991|msi1|total|mutant (ssRNA)", "RNA": "GGGAGUUCUACAGUCCGACGAUCCAACACUGCCAACCCUGAACGCUCUAAACCCAGUGACUUGGCCUCCACCUACACCGUCUCCGCCACAUUCCCCUCCAUUUCAGCUGCACAGAAUGCACUGAAGAAACAAAUUAACUCAGUCAACAGAGGAUUGAGCAUCA"}, "B10": {"name": "chr5:141516432:141516515:-|3pUTR|ENSG00000131504|msi1_unk|total|mutant (ssRNA)", "RNA": "GGGAGUUCUACAGUCCGACGAUCCUCAGACAAGGCCCAGCCUGCUUUUUCUCAGCCCUGACUUUCUAAUGGGCUUUCCCCCCCCGGUCAGUCUUGCUGGAUUUGUGCUUUUCUUUUGUGGUUUCUCUGGCCCUGAGAACCGCACAACAGAGGAUUGAGCAUCA"}, "B11": {"name": "chr2:96375651:96375752:+|3pUTR|ENSG00000121152|unk|FALSE|unique (ssRNA)", "RNA": "GGGAGUUCUACAGUCCGACGAUCAUUGACUAAGACAGUGGGUAUGCAAGAUAAGUUUAUUUUAUAUAAAAUACUUUGGGAAGUAGGUGUUCUAGGACUGGUGUGACAGUUCCAUGAAAUUAUGAGAGACCGGGGAUCCUUCCACAACAGAGGAUUGAGCAUCA"}, "B12": {"name": "chr16:68260521:68260622:+|3pUTR|ENSG00000103066|msi1|total|mutant (ssRNA)", "RNA": "GGGAGUUCUACAGUCCGACGAUCUCGCAGCUUCCCUGAGCUGCACCUCUUGCUAACCCCACCAUCACACUGCCACCCUGCCCCCGGGUCUCACCCGUACCAAGUGGGUCAGCACAGGGCUGAGGAUGGGGCUCCUAUCCACCCCAACAGAGGAUUGAGCAUCA"}, "B13": {"name": "chr5:16663783:16663884:-|3pUTR|ENSG00000145555|msi1|total|mutant (ssRNA)", "RNA": "GGGAGUUCUACAGUCCGACGAUCUGAGGAUACAAAAUUCACAGAUGCUCAAGUCCCUGCUAUACAGUGGUAUAAUAUUUGCACCGAACCUGCACACAUCUUUCCUUACCCUUUAAAUCAUCUCCAGGUUACAGAUACCCCGCACAACAGAGGAUUGAGCAUCA"}, "B14": {"name": "ENSG00000159459:stop:overlap|stop_codon|ENSG00000159459|stop_codon|NA|stop_codon (ssRNA)", "RNA": "GGGAGUUCUACAGUCCGACGAUCUCCGCUCACUGACCUCUCCCUCUCUGACUCAAGCAAUUCUCCCACCUCAGCCUCCCGAAUAGCUGGGACCACAGUGGUGGGAUCAGCAAGUUGAUUUUUAUACUGCUUUCUUGCAUCAUUCAACAGAGGAUUGAGCAUCA"}}, "note": "This is one part of the list."}
{"target": "MSI1 full-length (mouse, UniProt Q61474 1-362)", "sequence (Q61474 whole entry)": "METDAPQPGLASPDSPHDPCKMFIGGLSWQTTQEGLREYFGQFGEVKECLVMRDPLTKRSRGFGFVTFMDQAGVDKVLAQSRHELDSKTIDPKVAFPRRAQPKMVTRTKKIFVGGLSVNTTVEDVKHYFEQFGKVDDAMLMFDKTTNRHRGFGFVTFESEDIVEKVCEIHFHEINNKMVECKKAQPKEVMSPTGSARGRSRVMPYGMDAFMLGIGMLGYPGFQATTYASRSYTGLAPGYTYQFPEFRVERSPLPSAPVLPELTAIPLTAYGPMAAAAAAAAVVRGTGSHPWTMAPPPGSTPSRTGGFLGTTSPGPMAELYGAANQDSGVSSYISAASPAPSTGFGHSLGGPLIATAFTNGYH", "experiment": "nsRBNS (natural sequence RNA bind-n-seq); RBNS binding buffer (assumed for nsRBNS): 25 mM Tris pH 7.5, 150 mM KCl, 3 mM MgCl2, 0.01% Triton X-100, 500 ug/ml BSA, 20 U/ml SUPERase-In, 4 C; UNK is unkempt and MSI1 is Musashi-1; names of the RNAs are library labels; protein concentration not given here; high values mean tight binding", "units": {"binding signal": "enrichment R"}}
{"binder": "B1", "binding signal": 0.531}
{"binder": "B2", "binding signal": 0.677}
{"binder": "B3", "binding signal": 0.823}
{"binder": "B4", "binding signal": 0.413}
{"binder": "B5", "binding signal": 0.629}
{"binder": "B6", "binding signal": 0.458}
{"binder": "B7", "binding signal": 1.15}
{"binder": "B8", "binding signal": 1.97}
{"binder": "B9", "binding signal": 0.922}
{"binder": "B10", "binding signal": 0.383}
{"binder": "B11", "binding signal": 0.736}
{"binder": "B12", "binding signal": 0.534}
{"binder": "B13", "binding signal": 0.778}
{"binder": "B14", "binding signal": 0.651}
